# Some of the results follow.
# Target: T1, MBP-FoxP1dN (Mus musculus, UniProt P58462 326-579)
# T1 sequence: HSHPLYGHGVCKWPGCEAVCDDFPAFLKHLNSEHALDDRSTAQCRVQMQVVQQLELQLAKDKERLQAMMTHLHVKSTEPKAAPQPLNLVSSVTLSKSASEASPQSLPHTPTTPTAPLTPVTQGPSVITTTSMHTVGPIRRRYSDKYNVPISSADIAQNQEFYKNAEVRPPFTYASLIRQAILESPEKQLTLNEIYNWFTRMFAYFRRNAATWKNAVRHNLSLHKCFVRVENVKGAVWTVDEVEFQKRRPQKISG
# Assay: PD-seq (MBP pull-down with sequencing); 20 mM Tris-HCl pH 7.5, 100 mM NaCl, 1.5 mM MgCl2, 0.4 uM protein, 0.1 uM dsDNA library, 30 min, room temperature, amylose pull-down; high values mean tight binding
# Settings: protein: recombinant; tags: His6-MBP; chain copies: 2; dsDNA, one strand shown
# Summary of the method: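 The N-terminus-lacking fragment of mouse FoxP3 or FoxP1 carried a His6-MBP tag and was expressed in E. coli. At 0.4 µM it was incubated with 0.1 µM Klenow-filled degenerate double-stranded DNA library for 30 min at room temperature in Tris pH 7.5 buffer with NaCl and MgCl2, and complexes were caught on amylose resin, washed three times, released with proteinase K, PCR-barcoded and Illumina-sequenced. Binding is reads-per-million enrichment of pull-down over input with replicates pooled.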
row,Sequence,binding signal
1,GATGATTGTTCTCCCAGCTGATGAATTTAGTGAGTCGAGTAAACAAATTTTCCTAATCTTTCTGTTCAAGCGCCATCTAC,0.888 RPM ratio (pull-down/input)
2,GATGATTGTTCTCCCAGCTGATGAATTTCCTTCTTCGAGTAAACAAATTTTCCTAATCTTTCTGTTCAAGCGCCATCTAC,0.842 RPM ratio (pull-down/input)
3,GATGATTGTTCTCCCAGCTGATGAATTCAACTTTTCGAGTAAACAAATTTTCCTAATCTTTCTGTTCAAGCGCCATCTAC,0.904 RPM ratio (pull-down/input)
4,GATGATTGTTCTCCCAGCTGATGAATTGCCCTTATCGAGTAAACAAATTTTCCTAATCTTTCTGTTCAAGCGCCATCTAC,1.02 RPM ratio (pull-down/input)
5,GATGATTGTTCTCCCAGCTGATGAATTTTACATATCGAGTAAACAAATTTTCCTAATCTTTCTGTTCAAGCGCCATCTAC,0.97 RPM ratio (pull-down/input)
6,GATGATTGTTCTCCCAGCTGATGAATTATTGATTTCGAGTAAACAAATTTTCCTAATCTTTCTGTTCAAGCGCCATCTAC,1.72 RPM ratio (pull-down/input)
7,GATGATTGTTCTCCCAGCTGATGAATTCGCATTCTCGAGTAAACAAATTTTCCTAATCTTTCTGTTCAAGCGCCATCTAC,1.18 RPM ratio (pull-down/input)
8,GATGATTGTTCTCCCAGCTGATGAATTAACAACTTCGAGTAAACAAATTTTCCTAATCTTTCTGTTCAAGCGCCATCTAC,1.27 RPM ratio (pull-down/input)
9,GATGATTGTTCTCCCAGCTGATGAATTTTGTATCTCGAGTAAACAAATTTTCCTAATCTTTCTGTTCAAGCGCCATCTAC,1.39 RPM ratio (pull-down/input)
10,GATGATTGTTCTCCCAGCTGATGAATTTTCGCGATCGAGTAAACAAATTTTCCTAATCTTTCTGTTCAAGCGCCATCTAC,0.884 RPM ratio (pull-down/input)
11,GATGATTGTTCTCCCAGCTGATGAATTGCGGTTGTCGAGTAAACAAATTTTCCTAATCTTTCTGTTCAAGCGCCATCTAC,1.24 RPM ratio (pull-down/input)
12,GATGATTGTTCTCCCAGCTGATGAATTCGCCAACTCGAGTAAACAAATTTTCCTAATCTTTCTGTTCAAGCGCCATCTAC,0.852 RPM ratio (pull-down/input)
13,GATGATTGTTCTCCCAGCTGATGAATTACTACCATCGAGTAAACAAATTTTCCTAATCTTTCTGTTCAAGCGCCATCTAC,1.13 RPM ratio (pull-down/input)
14,GATGATTGTTCTCCCAGCTGATGAATTCTGTGACTCGAGTAAACAAATTTTCCTAATCTTTCTGTTCAAGCGCCATCTAC,0.875 RPM ratio (pull-down/input)
15,GATGATTGTTCTCCCAGCTGATGAATTTAACACGTCGAGTAAACAAATTTTCCTAATCTTTCTGTTCAAGCGCCATCTAC,0.996 RPM ratio (pull-down/input)
16,GATGATTGTTCTCCCAGCTGATGAATTCCTTCCCTCGAGTAAACAAATTTTCCTAATCTTTCTGTTCAAGCGCCATCTAC,0.768 RPM ratio (pull-down/input)
17,GATGATTGTTCTCCCAGCTGATGAATTGGGAACCTCGAGTAAACAAATTTTCCTAATCTTTCTGTTCAAGCGCCATCTAC,0.808 RPM ratio (pull-down/input)
18,GATGATTGTTCTCCCAGCTGATGAATTTAAGACGTCGAGTAAACAAATTTTCCTAATCTTTCTGTTCAAGCGCCATCTAC,0.87 RPM ratio (pull-down/input)
19,GATGATTGTTCTCCCAGCTGATGAATTATGAGTCTCGAGTAAACAAATTTTCCTAATCTTTCTGTTCAAGCGCCATCTAC,0.886 RPM ratio (pull-down/input)
20,GATGATTGTTCTCCCAGCTGATGAATTAGACACCTCGAGTAAACAAATTTTCCTAATCTTTCTGTTCAAGCGCCATCTAC,0.886 RPM ratio (pull-down/input)
21,GATGATTGTTCTCCCAGCTGATGAATTATGACCCTCGAGTAAACAAATTTTCCTAATCTTTCTGTTCAAGCGCCATCTAC,0.943 RPM ratio (pull-down/input)

row,Sequence,binding signal
1,GATGATTGTTCTCCCAGCTGATGAATTGCGGCCTTCGAGTAAACAAATTTTCCTAATCTTTCTGTTCAAGCGCCATCTAC,0.991 RPM ratio (pull-down/input)
2,GATGATTGTTCTCCCAGCTGATGAATTGCTGCCTTCGAGTAAACAAATTTTCCTAATCTTTCTGTTCAAGCGCCATCTAC,1.06 RPM ratio (pull-down/input)
3,GATGATTGTTCTCCCAGCTGATGAATTAGGGTACTCGAGTAAACAAATTTTCCTAATCTTTCTGTTCAAGCGCCATCTAC,0.884 RPM ratio (pull-down/input)
4,GATGATTGTTCTCCCAGCTGATGAATTAACGTTGTCGAGTAAACAAATTTTCCTAATCTTTCTGTTCAAGCGCCATCTAC,1.07 RPM ratio (pull-down/input)
5,GATGATTGTTCTCCCAGCTGATGAATTCCGGATATCGAGTAAACAAATTTTCCTAATCTTTCTGTTCAAGCGCCATCTAC,0.794 RPM ratio (pull-down/input)
6,GATGATTGTTCTCCCAGCTGATGAATTTGTTCGCTCGAGTAAACAAATTTTCCTAATCTTTCTGTTCAAGCGCCATCTAC,1.07 RPM ratio (pull-down/input)
7,GATGATTGTTCTCCCAGCTGATGAATTTCATTCGTCGAGTAAACAAATTTTCCTAATCTTTCTGTTCAAGCGCCATCTAC,0.801 RPM ratio (pull-down/input)
8,GATGATTGTTCTCCCAGCTGATGAATTGGGACGATCGAGTAAACAAATTTTCCTAATCTTTCTGTTCAAGCGCCATCTAC,0.912 RPM ratio (pull-down/input)
9,GATGATTGTTCTCCCAGCTGATGAATTGGCTAGATCGAGTAAACAAATTTTCCTAATCTTTCTGTTCAAGCGCCATCTAC,0.877 RPM ratio (pull-down/input)
10,GATGATTGTTCTCCCAGCTGATGAATTACAAGATTCGAGTAAACAAATTTTCCTAATCTTTCTGTTCAAGCGCCATCTAC,1.28 RPM ratio (pull-down/input)
11,GATGATTGTTCTCCCAGCTGATGAATTTTTAGATTCGAGTAAACAAATTTTCCTAATCTTTCTGTTCAAGCGCCATCTAC,0.869 RPM ratio (pull-down/input)
12,GATGATTGTTCTCCCAGCTGATGAATTTCACTCCTCGAGTAAACAAATTTTCCTAATCTTTCTGTTCAAGCGCCATCTAC,0.84 RPM ratio (pull-down/input)
13,GATGATTGTTCTCCCAGCTGATGAATTAAGGCATTCGAGTAAACAAATTTTCCTAATCTTTCTGTTCAAGCGCCATCTAC,1.13 RPM ratio (pull-down/input)
14,GATGATTGTTCTCCCAGCTGATGAATTCCGAAACTCGAGTAAACAAATTTTCCTAATCTTTCTGTTCAAGCGCCATCTAC,0.829 RPM ratio (pull-down/input)
15,GATGATTGTTCTCCCAGCTGATGAATTATCGGAATCGAGTAAACAAATTTTCCTAATCTTTCTGTTCAAGCGCCATCTAC,1.11 RPM ratio (pull-down/input)
16,GATGATTGTTCTCCCAGCTGATGAATTACACGATTCGAGTAAACAAATTTTCCTAATCTTTCTGTTCAAGCGCCATCTAC,1.08 RPM ratio (pull-down/input)
17,GATGATTGTTCTCCCAGCTGATGAATTCTCGCAATCGAGTAAACAAATTTTCCTAATCTTTCTGTTCAAGCGCCATCTAC,1.14 RPM ratio (pull-down/input)
18,GATGATTGTTCTCCCAGCTGATGAATTCCAATCTTCGAGTAAACAAATTTTCCTAATCTTTCTGTTCAAGCGCCATCTAC,0.906 RPM ratio (pull-down/input)
19,GATGATTGTTCTCCCAGCTGATGAATTTCACGACTCGAGTAAACAAATTTTCCTAATCTTTCTGTTCAAGCGCCATCTAC,0.797 RPM ratio (pull-down/input)
20,GATGATTGTTCTCCCAGCTGATGAATTACTCTATTCGAGTAAACAAATTTTCCTAATCTTTCTGTTCAAGCGCCATCTAC,1.15 RPM ratio (pull-down/input)
21,GATGATTGTTCTCCCAGCTGATGAATTGCTGTCATCGAGTAAACAAATTTTCCTAATCTTTCTGTTCAAGCGCCATCTAC,1.33 RPM ratio (pull-down/input)

row,Sequence,binding signal
1,GATGATTGTTCTCCCAGCTGATGAATTCCCTTTTTCGAGTAAACAAATTTTCCTAATCTTTCTGTTCAAGCGCCATCTAC,0.858 RPM ratio (pull-down/input)
2,GATGATTGTTCTCCCAGCTGATGAATTTCCTTATTCGAGTAAACAAATTTTCCTAATCTTTCTGTTCAAGCGCCATCTAC,0.891 RPM ratio (pull-down/input)
3,GATGATTGTTCTCCCAGCTGATGAATTCTTAACATCGAGTAAACAAATTTTCCTAATCTTTCTGTTCAAGCGCCATCTAC,1.05 RPM ratio (pull-down/input)
4,GATGATTGTTCTCCCAGCTGATGAATTAGGGCTCTCGAGTAAACAAATTTTCCTAATCTTTCTGTTCAAGCGCCATCTAC,0.794 RPM ratio (pull-down/input)
5,GATGATTGTTCTCCCAGCTGATGAATTTTTGTAATCGAGTAAACAAATTTTCCTAATCTTTCTGTTCAAGCGCCATCTAC,1.78 RPM ratio (pull-down/input)
6,GATGATTGTTCTCCCAGCTGATGAATTATCCCGTTCGAGTAAACAAATTTTCCTAATCTTTCTGTTCAAGCGCCATCTAC,0.988 RPM ratio (pull-down/input)
7,GATGATTGTTCTCCCAGCTGATGAATTTGCCTCATCGAGTAAACAAATTTTCCTAATCTTTCTGTTCAAGCGCCATCTAC,1 RPM ratio (pull-down/input)
8,GATGATTGTTCTCCCAGCTGATGAATTGGATATTTCGAGTAAACAAATTTTCCTAATCTTTCTGTTCAAGCGCCATCTAC,0.943 RPM ratio (pull-down/input)
9,GATGATTGTTCTCCCAGCTGATGAATTCATTCGTTCGAGTAAACAAATTTTCCTAATCTTTCTGTTCAAGCGCCATCTAC,0.904 RPM ratio (pull-down/input)
10,GATGATTGTTCTCCCAGCTGATGAATTTGACATCTCGAGTAAACAAATTTTCCTAATCTTTCTGTTCAAGCGCCATCTAC,0.803 RPM ratio (pull-down/input)
11,GATGATTGTTCTCCCAGCTGATGAATTGGACGTTTCGAGTAAACAAATTTTCCTAATCTTTCTGTTCAAGCGCCATCTAC,0.862 RPM ratio (pull-down/input)
12,GATGATTGTTCTCCCAGCTGATGAATTAATTATGTCGAGTAAACAAATTTTCCTAATCTTTCTGTTCAAGCGCCATCTAC,1.07 RPM ratio (pull-down/input)
13,GATGATTGTTCTCCCAGCTGATGAATTCCGATGATCGAGTAAACAAATTTTCCTAATCTTTCTGTTCAAGCGCCATCTAC,0.884 RPM ratio (pull-down/input)
14,GATGATTGTTCTCCCAGCTGATGAATTCTCGGTCTCGAGTAAACAAATTTTCCTAATCTTTCTGTTCAAGCGCCATCTAC,0.756 RPM ratio (pull-down/input)
15,GATGATTGTTCTCCCAGCTGATGAATTGAACGACTCGAGTAAACAAATTTTCCTAATCTTTCTGTTCAAGCGCCATCTAC,0.624 RPM ratio (pull-down/input)
16,GATGATTGTTCTCCCAGCTGATGAATTCCTTCACTCGAGTAAACAAATTTTCCTAATCTTTCTGTTCAAGCGCCATCTAC,0.85 RPM ratio (pull-down/input)
17,GATGATTGTTCTCCCAGCTGATGAATTGGTAGAATCGAGTAAACAAATTTTCCTAATCTTTCTGTTCAAGCGCCATCTAC,1.03 RPM ratio (pull-down/input)
18,GATGATTGTTCTCCCAGCTGATGAATTACTGCTTTCGAGTAAACAAATTTTCCTAATCTTTCTGTTCAAGCGCCATCTAC,1.45 RPM ratio (pull-down/input)
19,GATGATTGTTCTCCCAGCTGATGAATTATCATTATCGAGTAAACAAATTTTCCTAATCTTTCTGTTCAAGCGCCATCTAC,1.23 RPM ratio (pull-down/input)
20,GATGATTGTTCTCCCAGCTGATGAATTGTCGGGATCGAGTAAACAAATTTTCCTAATCTTTCTGTTCAAGCGCCATCTAC,0.855 RPM ratio (pull-down/input)
21,GATGATTGTTCTCCCAGCTGATGAATTATAAGAATCGAGTAAACAAATTTTCCTAATCTTTCTGTTCAAGCGCCATCTAC,1.07 RPM ratio (pull-down/input)
